Test results: the supplement of paper PMC11417369
The other results are listed elsewhere or left out.

What follows are sequences tested on PfHDP1 homeodomain (GST-tagged) (assay: gcPBM binding intensity (ln(normalized median fluorescence intensity)); higher = stronger DNA binding).
Summary of the method: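 An Agilent 4 × 180k array carrying primer-extended double-stranded 36-bp intergenic genomic probes and negative controls received GST-tagged P. falciparum DNA-binding domains expressed in E. coli, about 25 μg on average, for 1 h. The binding buffer contained 1× PBS, 1% milk, 0.2 mg/ml BSA, 0.5% salmon testes DNA and 0.03% Triton X-100. Binding intensity is the top Masliner-normalised natural-log median intensity across replicate spots of either probe orientation, read after Alexa488 anti-GST antibody staining and a 488 nm scan.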

Row | Sequence | gcPBM binding intensity (ln)
1 | ATATTTATGAAGTTCACACATATATATATATATATA [CACACA_site5954] | 9.49
2 | GATAAATTAAAACACACACACATATATATATATATA [CACACA_site3962] | 9.45
3 | TTATAATAAAATGAATATATATAATTTAAAATATTT [CACACA_negctrl_site1651] | 6.33
4 | AAAAAAATAGTCTTCTTGCACTTTTTAATTTATTTT | 6.7
5 | TATATATAAATATGCTGTACGTTTTAATACGTTAAG [XGTACX_site2378] | 6.2
6 | ATACACACTCAAAAAAGTACTTAACTACATGAATTG [XGTACX_site6366] | 6.64
7 | TAATTATATTCACTTGCTATATAAATTATATATATT [CACACA_negctrl_site526] | 6.33
8 | CTCAAAGGAATATTCACACATAAATTATAGACTACA [CACACA_site6050] | 6.42
9 | GTATATATATATATATGCAAATGTATAAATCTACAT [CACACA_negctrl_site546] | 7.32
10 | AAGAAAAAAATATATGTTTATTTACTTTAATAATTT [TGCATGCA_negctrl_site168] | 5.83
11 | TAATATTTACATATTACACACACGTATTATTAAATA [CACACA_site6340] | 6.64
12 | TATTTTTTAAAAATGGGTACACATAAATAAATAAAT [XGTACX_site7643] | 6.83
13 | TGTGAATAAATAAGCACACATAAACCCATATATAAA [CACACA_site4103] | 6.83
14 | ATCTAAACAAATAATACACACAATAAAATAGGAAGA [CACACA_site4072] | 7.05
15 | AATCACCAAATATGTACACACCTTAACATGTTTATA [CACACA_site5180] | 6.9
16 | AAGAAAAATTTAAACTGTACTTGTTTTCCAATGAAC [XGTACX_site4443] | 6.38
17 | AAAAAAAAAAAAGTTACACACAAATAAAATATTTGG [CACACA_site694] | 6.11
18 | ATTATTCATTTATGTAGTACATTTTAATACATTTAA [XGTACX_site3599] | 6.64
19 | ATAAAAAAAAATAAATGTACAAATTAACAAAATAAT [XGTACX_site5048] | 6.86
20 | AAATAAAACAATTAACGTACAAGCATATATATATAT [XGTACX_site8508] | 9.1
21 | ATTTATTAAATTTATAGTACTCAAAGATTTTTATTT [XGTACX_site6661] | 6.27
22 | AAATAAAAAAAAATAGCACACATAAATATATTATAT [CACACA_site8155] | 6.87
23 | TATATATATATTATATGTACACAAGGAAATATGCAT [XGTACX_site5637] | 8.32

Row | Sequence | gcPBM binding intensity (ln)
24 | TATGTATAATTATTTTGTACTTATTAAATTTTTTTT [XGTACX_site5413] | 5.9
25 | TTCAAAATAAAAAATTCACACACATATATATATATA [CACACA_site8653] | 9.22
26 | ATCTATGAAAAAGGTACATGCAATAAAGAAACATAT [TGCATGCA_site805] | 7.34
27 | TAATAATAGAGACACACACACATAGACATATAAATA [CACACA_site6729] | 6.87
28 | TTATAATCAATGAATACACACATATATTTCATTAAT [CACACA_site5909] | 6.41
29 | TTATACTATTTTTATACATGCATTTCTATATATTTT [TGCATGCA_site316] | 6.6
30 | ACATGTAATATAATGTGTACATATACAAAGGTATAT [XGTACX_site4145] | 6.6
31 | AGATGAGAAATATATACACACAATAATACCTATTTA [CACACA_site876] | 6.45
32 | ATAAAGTATATTATATGTACATATATATATTATATA [XGTACX_site1345] | 6.43
33 | GAGCCCAAAAAATTAGGTACGTATAAAGAGGTATTT [XGTACX_site5348] | 6.26
34 | TTTGTGTTGTATTTTTGTACATAAAATAAACTTAAA [XGTACX_site4637] | 6.65
35 | TTTCTTTTTTCTTCAGTGCATTAAAATTAACAAAAG | 9.58
36 | TCTTTTTTCATATTTTCACACATGTCTTTATATTTA [CACACA_site6025] | 7.62
37 | AGGAAAATTTTATTTGCACACATTATTACGTCTAAA [CACACA_site2337] | 10.4
38 | CATATATATATTGGAAGTACATATTTAATATTCATT [XGTACX_site3545] | 6.4
39 | ATATAAACATATAATAGTACACTTCGATAATTTTAT [XGTACX_site3321] | 6.42
40 | ATTTAACATATAAAATGTACATATATATATATATTT [XGTACX_site2525] | 6.51
41 | GTACCATCAAAATAAATATATATATATATATATTTT [GTGCAC_negctrl_site646] | 6.61
42 | TCATAAATATAAAGTGTGCACTTGAATAATATGTAT | 9.34
43 | AAAATAAAAAAAATAAATAAAAAAAATAATAATAAA [CACACA_negctrl_site563] | 6.29
44 | TAAATAAATCTGTGCTTGCACTTTTTTTGTTATTTT | 6.44
45 | CAAACCCACCAACACACACACACAAAAATGATTAAA [CACACA_site2432] | 6.73
